Results as given in the RNAGym collection of RNA variant scans (doi:10.1101/gad.245936.114).
Variants at the floor of the assay are shown more often than the library holds them.

B1: tRNA (parent)
chain: CUCUCGGUAGCCAAGUUGGUUUAAGGCGCAAGACUUUAAUUUAUCACUACGAAAUCUUGAGAUCGGGCGUUCGACUCGCCCCCGGGAGAUUUUUUCCUCGAGCAA

Variants of: B1
Assay: nonsense suppression (GFP-seq) (ratio to wild type); higher = more function; SUP4oc tRNA, yeast GFP reporter sort-seq
In short: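 Nonsense suppression (GFPSEQ) is the median GFP/RFP ratio of each sorting bin, weighted by the variant's estimated share of cells in that bin and expressed relative to the unmutated parent tRNA. Yeast strains carried genome-integrated variants of an ochre-suppressor tRNA from a library with ~3% random mutations, plus a galactose-driven GFP ochre reporter and RFP, and were grown in raffinose/galactose medium containing 80 mg/L adenine. Cells were sorted into GFP/RFP bins, each bin was Illumina-sequenced (phred ≥30), and variants were kept only with ≥100 reads and ≥30 cells.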

C1G U2A C27U and U2A C3U cannot be ordered by nonsense suppression: ≤ 0.026 for the first, ≤ 0.026 for the second.

C1U U2A U4G C80U and C1U G15U A31U cannot be ordered by nonsense suppression: ≤ 0.026 for the first, ≤ 0.026 for the second.

C1U G7C and C1U G7A cannot be ordered by nonsense suppression: ≤ 0.026 for the first, ≤ 0.026 for the second.

C1U U17C G69C U76C G86C and C1G A30G G61A cannot be ordered by nonsense suppression: ≤ 0.026 for the first, ≤ 0.026 for the second.

C1U U35A C77A G84U and C1U C5A cannot be ordered by nonsense suppression: ≤ 0.026 for the first, ≤ 0.026 for the second.

C1U G25U and C1G G15U G61U cannot be ordered by nonsense suppression: ≤ 0.026 for the first, ≤ 0.026 for the second.

U2A C3U G69U C82A and C1U U17G cannot be ordered by nonsense suppression: ≤ 0.026 for the first, ≤ 0.026 for the second.

C1U C3G G86A and C1G U21G U22C cannot be ordered by nonsense suppression: ≤ 0.026 for the first, ≤ 0.026 for the second.

U2A A13U C56G and C1U A24U cannot be ordered by nonsense suppression: ≤ 0.026 for the first, ≤ 0.026 for the second.

C1U G7U U35C G65U U76A and C1U U2C G32U G86U cannot be ordered by nonsense suppression: ≤ 0.026 for the first, ≤ 0.026 for the second.

C1G U57A C83A and C1U G10U U16C U17G cannot be ordered by nonsense suppression: ≤ 0.026 for the first, ≤ 0.026 for the second.

C1U U22A U35C A54G G61A U63G U70C G84A G86A A87C and C1G C12U U76C G86A cannot be ordered by nonsense suppression: ≤ 0.026 for the first, ≤ 0.026 for the second.

C1G U8A G84C and C1U A9G C27G A33C G73A cannot be ordered by nonsense suppression: ≤ 0.026 for the first, ≤ 0.026 for the second.

C1U U55A G67U and C1G C27U U70G A74C cannot be ordered by nonsense suppression: ≤ 0.026 for the first, ≤ 0.026 for the second.

C1U C82G G86C and C1U A9U C80A cannot be ordered by nonsense suppression: ≤ 0.026 for the first, ≤ 0.026 for the second.

C1G U2C G18U and C1U U2A C3G A23U G28C cannot be ordered by nonsense suppression: ≤ 0.026 for the first, ≤ 0.026 for the second.

C1U C5U C34A and C1U A54G G84U cannot be ordered by nonsense suppression: ≤ 0.026 for the first, ≤ 0.026 for the second.

C1G G7A G66C A74C and C1U G19U U21G C27U G66C cannot be ordered by nonsense suppression: ≤ 0.026 for the first, ≤ 0.026 for the second.

C1U G18U G73U and C1G A74C C82A cannot be ordered by nonsense suppression: ≤ 0.026 for the first, ≤ 0.026 for the second.

U2A A31G A87G and C1U U2C A62G C64G G73A cannot be ordered by nonsense suppression: ≤ 0.026 for the first, ≤ 0.026 for the second.

U2A C27A and C1G G10U G66U G73U cannot be ordered by nonsense suppression: ≤ 0.026 for the first, ≤ 0.026 for the second.

C1G C3U G67C A74G and U2A C11A U17G C68U cannot be ordered by nonsense suppression: ≤ 0.026 for the first, ≤ 0.026 for the second.

C1U U55A A62U G73A and C1G C3U U35A cannot be ordered by nonsense suppression: ≤ 0.026 for the first, ≤ 0.026 for the second.

C1U C5U C11U U16G C34G U63G G66C and C1G U4C G73C A74U cannot be ordered by nonsense suppression: ≤ 0.026 for the first, ≤ 0.026 for the second.

C1U A9G C72A C75U and C1G U55A C64A C81A cannot be ordered by nonsense suppression: ≤ 0.026 for the first, ≤ 0.026 for the second.

C1U A9C U17C C29U C80G A89U and C1U U35C A62G G86A cannot be ordered by nonsense suppression: ≤ 0.026 for the first, ≤ 0.026 for the second.

C1U C5G G19C C68G G84A and C1G U21A C34U cannot be ordered by nonsense suppression: ≤ 0.026 for the first, ≤ 0.026 for the second.

C1G U16C A23C C29G G61U C72G and C1G G18U U63G C79G cannot be ordered by nonsense suppression: ≤ 0.026 for the first, ≤ 0.026 for the second.

C1U U16A and C1U cannot be ordered by nonsense suppression: ≤ 0.026 for the first, ≤ 0.026 for the second.

C1G U22C C27U G67C and C1G G59C cannot be ordered by nonsense suppression: ≤ 0.026 for the first, ≤ 0.026 for the second.

C1G C56A C72G and C1U C75G cannot be ordered by nonsense suppression: ≤ 0.026 for the first, ≤ 0.026 for the second.

First: C1G G6U A9U A60C
Second: C1G U16A
The nonsense suppression of the first is lower: ≤ 0.026 for the first, 0.777 for the second.

C1G C27G and C1G A60U U63G cannot be ordered by nonsense suppression: ≤ 0.026 for the first, ≤ 0.026 for the second.

C1U G86U and C1U U21C G69U C83G G85A A87U A89G cannot be ordered by nonsense suppression: ≤ 0.026 for the first, ≤ 0.026 for the second.

U2A A30U G69A C77U and U2A A30U G69A C77G cannot be ordered by nonsense suppression: ≤ 0.026 for the first, ≤ 0.026 for the second.

C1G U35A and C1U C11U G65A cannot be ordered by nonsense suppression: ≤ 0.026 for the first, ≤ 0.026 for the second.

U2A A23C and C1U C3U C5A U17A cannot be ordered by nonsense suppression: ≤ 0.026 for the first, ≤ 0.026 for the second.

C1G C5G C11U A14C U22G and C1U G7A A89U cannot be ordered by nonsense suppression: ≤ 0.026 for the first, ≤ 0.026 for the second.

C1G G69U A87C and C1U G18A U76G cannot be ordered by nonsense suppression: ≤ 0.026 for the first, ≤ 0.026 for the second.

C1U G15C U16A A33C G61A and C1G C12G cannot be ordered by nonsense suppression: ≤ 0.026 for the first, ≤ 0.026 for the second.

C1U A62U G69A C77G and C1G G25C A30U C68A G73C C77A cannot be ordered by nonsense suppression: ≤ 0.026 for the first, ≤ 0.026 for the second.

C1G G59U U71A and U2A C3U G78U C81G cannot be ordered by nonsense suppression: ≤ 0.026 for the first, ≤ 0.026 for the second.

U2A A13C G65A and C1U G32C U71C C72G G73C G86U cannot be ordered by nonsense suppression: ≤ 0.026 for the first, ≤ 0.026 for the second.

C1U G85C and C1U G85A cannot be ordered by nonsense suppression: ≤ 0.026 for the first, ≤ 0.026 for the second.

C1U U8G A14U C34G and C1U U22C C83G cannot be ordered by nonsense suppression: ≤ 0.026 for the first, ≤ 0.026 for the second.

C1G G10C U22C and C1G A24C C34U cannot be ordered by nonsense suppression: ≤ 0.026 for the first, ≤ 0.026 for the second.

C1U C3A A13C G65A and C1G C3A A31C cannot be ordered by nonsense suppression: ≤ 0.026 for the first, ≤ 0.026 for the second.

C1G C77U and C1U C11U C75A cannot be ordered by nonsense suppression: ≤ 0.026 for the first, ≤ 0.026 for the second.

C1G C29A C34U and C1U A23U A33G U76C cannot be ordered by nonsense suppression: ≤ 0.026 for the first, ≤ 0.026 for the second.

C1U U70A and C1U U17C C81G cannot be ordered by nonsense suppression: ≤ 0.026 for the first, ≤ 0.026 for the second.

Compared with U2A A60C, U2A A60G is higher in nonsense suppression: ≤ 0.026 for the first, 0.0755 for the second.

C1U A33U C34A and C1G G15C U35G U71A G85U cannot be ordered by nonsense suppression: ≤ 0.026 for the first, ≤ 0.026 for the second.

C1U G10C U55C U57G and C1U G18A A62G C82A cannot be ordered by nonsense suppression: ≤ 0.026 for the first, ≤ 0.026 for the second.

C1G U16G G66U and C1U A31U A54U cannot be ordered by nonsense suppression: ≤ 0.026 for the first, ≤ 0.026 for the second.

C1U U16C A31G U71G A74C and C1U A13C C68G cannot be ordered by nonsense suppression: ≤ 0.026 for the first, ≤ 0.026 for the second.

C1U C11U A14G G28U A60C and C1U A24G U76G cannot be ordered by nonsense suppression: ≤ 0.026 for the first, ≤ 0.026 for the second.

C1U U17C C64A and C1U U4A G78A cannot be ordered by nonsense suppression: ≤ 0.026 for the first, ≤ 0.026 for the second.

C1U G61A U70G G73C and C1G U16C G26U cannot be ordered by nonsense suppression: ≤ 0.026 for the first, ≤ 0.026 for the second.

U2A C3U C29G and C1U C34U G85C cannot be ordered by nonsense suppression: ≤ 0.026 for the first, ≤ 0.026 for the second.

U2A A24G and C1U G15C U57A cannot be ordered by nonsense suppression: ≤ 0.026 for the first, ≤ 0.026 for the second.

C1U G10A U17G U70G and C1U G65C C79U G84U cannot be ordered by nonsense suppression: ≤ 0.026 for the first, ≤ 0.026 for the second.

C1G C12G U22A A30C U70G and C1G G7U A60C cannot be ordered by nonsense suppression: ≤ 0.026 for the first, ≤ 0.026 for the second.

C1G C34G G84U and U2A C12U U22G cannot be ordered by nonsense suppression: ≤ 0.026 for the first, ≤ 0.026 for the second.

C1G U58A and C1G U58G cannot be ordered by nonsense suppression: ≤ 0.026 for the first, ≤ 0.026 for the second.

C1G U16C A89U and U2A C3A C72A cannot be ordered by nonsense suppression: ≤ 0.026 for the first, ≤ 0.026 for the second.

C1U A24C A89C and C1G U57A cannot be ordered by nonsense suppression: ≤ 0.026 for the first, ≤ 0.026 for the second.

C1U U8G C11A C75G and C1G U8C C56A cannot be ordered by nonsense suppression: ≤ 0.026 for the first, ≤ 0.026 for the second.

C1U A74C and C1U A13G A62G cannot be ordered by nonsense suppression: ≤ 0.026 for the first, ≤ 0.026 for the second.

C1U U57G U76A and C1U C34A U58G cannot be ordered by nonsense suppression: ≤ 0.026 for the first, ≤ 0.026 for the second.

C1U U22A A23U C29U A33G U57C C81G and C1U G88U cannot be ordered by nonsense suppression: ≤ 0.026 for the first, ≤ 0.026 for the second.

C1U C27G A62U and U2A C12G cannot be ordered by nonsense suppression: ≤ 0.026 for the first, ≤ 0.026 for the second.

U2A C12A and U2A A9G U16G G61A G86U cannot be ordered by nonsense suppression: ≤ 0.026 for the first, ≤ 0.026 for the second.

C1U G59A and C1U U57C U58A cannot be ordered by nonsense suppression: ≤ 0.026 for the first, ≤ 0.026 for the second.

C1G C83A G86C and C1G A54G U63G U70G cannot be ordered by nonsense suppression: ≤ 0.026 for the first, ≤ 0.026 for the second.

C1U U8C A33U U55C G69A and C1U C64G C75U A89G cannot be ordered by nonsense suppression: ≤ 0.026 for the first, ≤ 0.026 for the second.

C1U U76C C77A A87U and C1G G26C cannot be ordered by nonsense suppression: ≤ 0.026 for the first, ≤ 0.026 for the second.

C1G A30G and C1U C72U cannot be ordered by nonsense suppression: ≤ 0.026 for the first, ≤ 0.026 for the second.

C1U C72A and C1U G6U G86A cannot be ordered by nonsense suppression: ≤ 0.026 for the first, ≤ 0.026 for the second.

C1U C5G G6C U70A C75G and C1U A14G G15U U20G G25U cannot be ordered by nonsense suppression: ≤ 0.026 for the first, ≤ 0.026 for the second.

C1U G6U A33U C77G A89G and C1G U4A G25U G67A A74C cannot be ordered by nonsense suppression: ≤ 0.026 for the first, ≤ 0.026 for the second.

C1G G10C A31U A33U U55C C81G and C1U U35G cannot be ordered by nonsense suppression: ≤ 0.026 for the first, ≤ 0.026 for the second.

C1U U35C and C1G A24U U55G cannot be ordered by nonsense suppression: ≤ 0.026 for the first, ≤ 0.026 for the second.

C1U G32U G67A G88A and C1U U55A G69C G85A cannot be ordered by nonsense suppression: ≤ 0.026 for the first, ≤ 0.026 for the second.

With C1G U8A G65C G73A the nonsense suppression was ≤ 0.026.
